Ki data for 26 molecules are collected here from patent US9873709B2 (priority 2013, dated 2018).

Structures are written as SMILES.

The target in the test is isolated recombinant JAK1 kinase domain (Homo sapiens (Human), UniProt P23458). Particulars: read-out: JAK1 Ki; isolated recombinant JAK1 kinase domain, 25 μM ATP.
On to `CN1CCC(N(C)C(=O)c2ccc(Nc3nc4c(N5CCc6ccccc6C5)cccn4n3)cc2)CC1` [Example 1-46, 4-[[8-(3,4-dihydro-1H-isoquinolin-2-yl)-[1,2,4]triazolo[1,5-a]pyridin-2-yl]amino]-N-methyl-N-(1-methyl-4-piperidyl)benzamide], for which the Ki was 101 nM.

For `CN1C2COCC1CN(C(=O)c1ccc(Nc3nc4c(N5CCC(O)(c6ccc(Cl)cc6)CC5)cccn4n3)cc1)C2` [Example 1-50, [4-[[8-[4-(4-chlorophenyl)-4-hydroxy-1-piperidyl]-[1,2,4]triazolo[1,5-a]pyridin-2-yl]amino]phenyl]-(9-methyl-3-oxa-7,9-diazabicyclo[3.3.1]nonan-7-yl)methanone], the Ki was determined as 3.11 nM.

In the case of `O=C(c1ccc(Nc2nc3c(N4CCC(O)(c5ccc(Cl)cc5)CC4)cccn3n2)cc1)N1CCCC(O)(CN2CCCC2)CC1` (centres unmarked) [Example 1-51, [4-[[8-[4-(4-chlorophenyl)-4-hydroxy-1-piperidyl]-[1,2,4]triazolo[1,5-a]pyridin-2-yl]amino]phenyl]-[4-hydroxy-4-(pyrrolidin-1-ylmethyl)azepan-1-yl]methanone], the inhibitory constant (Ki) stood at 3.74 nM.

`CN1CCCCC1C1CCCN1C(=O)c1ccc(Nc2nc3c(N4CCC(O)(c5ccc(Cl)cc5)CC4)cccn3n2)cc1` (centres unmarked) [Example 1-52, [4-[[8-[4-(4-chlorophenyl)-4-hydroxy-1-piperidyl]-[1,2,4]triazolo[1,5-a]pyridin-2-yl]amino]phenyl]-[2-(1-methyl-2-piperidyl)pyrrolidin-1-yl]methanone]: the Ki is 1.88 nM.

As to `CC(=O)N1CC2(C1)CN(C(=O)c1ccc(Nc3nc4c(N5CCC(O)(c6ccc(Cl)cc6)CC5)cccn4n3)cc1)C2` [Example 1-53, 1-[2-[4-[[8-[4-(4-chlorophenyl)-4-hydroxy-1-piperidyl]-[1,2,4]triazolo[1,5-a]pyridin-2-yl]amino]benzoyl]-2,6-diazaspiro[3.3]heptan-6-yl]ethanone], the Ki turned out to be 1.03 nM.

For the molecule `O=C(c1ccc(Nc2nc3c(N4CCC(O)(c5ccc(Cl)cc5)CC4)cccn3n2)cc1)N1CCN(C2CC2)CC1` [Example 1-54, [4-[[8-[4-(4-chlorophenyl)-4-hydroxy-1-piperidyl]-[1,2,4]triazolo[1,5-a]pyridin-2-yl]amino]phenyl]-(4-cyclopropylpiperazin-1-yl)methanone], the Ki is 1.15 nM.

As for `CN1CC2CC(C1)N(C(=O)c1ccc(Nc3nc4c(N5CCC(O)(c6ccc(Cl)cc6)CC5)cccn4n3)cc1)C2` (centres unmarked) [Example 1-55, [4-[[8-[4-(4-chlorophenyl)-4-hydroxy-1-piperidyl]-[1,2,4]triazolo[1,5-a]pyridin-2-yl]amino]phenyl]-(3-methyl-3,6-diazabicyclo[3.2.1]octan-6-yl)methanone], the inhibition constant (Ki) was 3.19 nM.

For the molecule `O=C(c1ccc(Nc2nc3c(N4CCC(O)(c5ccc(Cl)cc5)CC4)cccn3n2)cc1)N1CCN(C2CCC2)CC1` [Example 1-56, [4-[[8-[4-(4-chlorophenyl)-4-hydroxy-1-piperidyl]-[1,2,4]triazolo[1,5-a]pyridin-2-yl]amino]phenyl]-(4-cyclobutylpiperazin-1-yl)methanone], the Ki is 4.3 nM.

Regarding `Cc1ccc(CNC(=O)c2ccc(Nc3nc4c(N5CCC(O)(c6ccc(Cl)cc6)CC5)cccn4n3)cc2)cn1` [Example 1-58, 4-[[8-[4-(4-chlorophenyl)-4-hydroxy-1-piperidyl]-[1,2,4]triazolo[1,5-a]pyridin-2-yl]amino]-N-[(6-methyl-3-pyridyl)methyl] benzamide], the inhibition constant (Ki) turned out to be 3.18 nM.

`CN1CCC2(C1)CN(C(=O)c1ccc(Nc3nc4c(N5CCC(O)(c6ccc(Cl)cc6)CC5)cccn4n3)cc1)C2` [Example 1-59, [4-[[8-[4-(4-chlorophenyl)-4-hydroxy-1-piperidyl]-[1,2,4]triazolo[1,5-a]pyridin-2-yl]amino]phenyl]-(7-methyl-2,7-diazaspiro[3.4]octan-2-yl)methanone]: the Ki was 1.27 nM.

On to `CN1CCCC12CN(C(=O)c1ccc(Nc3nc4c(N5CCC(O)(c6ccc(Cl)cc6)CC5)cccn4n3)cc1)C2` [Example 1-60, [4-[[8-[4-(4-chlorophenyl)-4-hydroxy-1-piperidyl]-[1,2,4]triazolo[1,5-a]pyridin-2-yl]amino]phenyl]-(5-methyl-2,5-diazaspiro[3.4]octan-2-yl)methanone], for which the Ki was 1.06 nM.

For `CC1CCN(CCNC(=O)c2ccc(Nc3nc4c(N5CCC(O)(c6ccc(Cl)cc6)CC5)cccn4n3)cc2)CC1` [Example 1-61, 4-[[8-[4-(4-chlorophenyl)-4-hydroxy-1-piperidyl]-[1,2,4]triazolo[1,5-a]pyridin-2-yl]amino]-N-[2-(4-methyl-1-piperidyl)ethyl] benzamide], the Ki amounted to 2.53 nM.

As for `CN1CCC(NC(=O)c2ccc(Nc3nc4c(N5CCC(O)(c6ccc(Cl)cc6)CC5)cccn4n3)cc2)C1` (centres unmarked) [Example 1-62, 4-[[8-[4-(4-chlorophenyl)-4-hydroxy-1-piperidyl]-[1,2,4]triazolo[1,5-a]pyridin-2-yl]amino]-N-(1-methylpyrrolidin-3-yl)benzamide], the Ki amounted to 1.42 nM.

As to `Cc1ccnc(CNC(=O)c2ccc(Nc3nc4c(N5CCC(O)(c6ccc(Cl)cc6)CC5)cccn4n3)cc2)c1` [Example 1-63, 4-[[8-[4-(4-chlorophenyl)-4-hydroxy-1-piperidyl]-[1,2,4]triazolo[1,5-a]pyridin-2-yl]amino]-N-[(4-methyl-2-pyridyl)methyl] benzamide], the Ki was 4.13 nM.

In the case of `Cc1ncccc1CNC(=O)c1ccc(Nc2nc3c(N4CCC(O)(c5ccc(Cl)cc5)CC4)cccn3n2)cc1` [Example 1-64, 4-[[8-[4-(4-chlorophenyl)-4-hydroxy-1-piperidyl]-[1,2,4]triazolo[1,5-a]pyridin-2-yl]amino]-N-[(2-methyl-3-pyridyl)methyl] benzamide], the inhibition constant (Ki) was 2.27 nM.

On to `CCN1CCC(CN(C)C(=O)c2ccc(Nc3nc4c(N5CCC(O)(c6ccc(Cl)cc6)CC5)cccn4n3)cc2)C1` (centres unmarked) [Example 1-65, 4-[[8-[4-(4-chlorophenyl)-4-hydroxy-1-piperidyl]-[1,2,4]triazolo[1,5-a]pyridin-2-yl]amino]-N-[(1-ethylpyrrolidin-3-yl)methyl]-N-methyl-benzamide], for which the inhibitory constant (Ki) turned out to be 2.34 nM.

Regarding `CN1CCCC2(CCCN(C(=O)c3ccc(Nc4nc5c(N6CCC(O)(c7ccc(Cl)cc7)CC6)cccn5n4)cc3)C2)C1` (centres unmarked) [Example 1-66, [4-[[8-[4-(4-chlorophenyl)-4-hydroxy-1-piperidyl]-[1,2,4]triazolo[1,5-a]pyridin-2-yl]amino]phenyl]-(8-methyl-2,8-diazaspiro[5.5]undecan-2-yl)methanone], the Ki was determined as 2.22 nM.

For `Cn1ccnc1CN1CCN(C(=O)c2ccc(Nc3nc4c(N5CCC(O)(c6ccc(Cl)cc6)CC5)cccn4n3)cc2)CC1` [Example 1-67, [4-[[8-[4-(4-chlorophenyl)-4-hydroxy-1-piperidyl]-[1,2,4]triazolo[1,5-a]pyridin-2-yl]amino]phenyl]-[4-[(1-methylimidazol-2-yl)methyl]piperazin-1-yl]methanone], the Ki is 3.41 nM.

For `O=C(c1ccc(Nc2nc3c(N4CCC(O)(c5ccc(Cl)cc5)CC4)cccn3n2)cc1)N1CCCC1c1cccnc1` (centres unmarked) [Example 1-68, [4-[[8-[4-(4-chlorophenyl)-4-hydroxy-1-piperidyl]-[1,2,4]triazolo[1,5-a]pyridin-2-yl]amino]phenyl]-[2-(3-pyridyl)pyrrolidin-1-yl]methanone], the inhibitory constant (Ki) stood at 2.16 nM.

For `CN1CCN(C(=O)c2ccc(Nc3nc4c(N5CCC(O)(c6ccc(Cl)cc6)CC5)cccn4n3)cc2)CC(CO)C1` (centres unmarked) [Example 1-69, [4-[[8-[4-(4-chlorophenyl)-4-hydroxy-1-piperidyl]-[1,2,4]triazolo[1,5-a]pyridin-2-yl]amino]phenyl]-[6-(hydroxymethyl)-4-methyl-1,4-diazepan-1-yl]methanone], the Ki came out at 6.12 nM.

In the case of `CN1CCOC2(C1)CN(C(=O)c1ccc(Nc3nc4c(N5CCC(O)(c6ccc(Cl)cc6)CC5)cccn4n3)cc1)C2` [Example 1-70, [4-[[8-[4-(4-chlorophenyl)-4-hydroxy-1-piperidyl]-[1,2,4]triazolo[1,5-a]pyridin-2-yl]amino]phenyl]-(8-methyl-5-oxa-2,8-diazaspiro[3.5]nonan-2-yl)methanone], the Ki was 2.57 nM.

Turning to `CN(C)C(=O)C1CN(C(=O)c2ccc(Nc3nc4c(N5CCC(O)(c6ccc(Cl)cc6)CC5)cccn4n3)cc2)CCN1C` (centres unmarked) [Example 1-71, 4-[4-[[8-[4-(4-chlorophenyl)-4-hydroxy-1-piperidyl]-[1,2,4]triazolo[1,5-a]pyridin-2-yl]amino]benzoyl]-N,N,1-trimethyl-piperazine-2-carboxamide], the Ki amounted to 4.5 nM.

Consider `CN(C)C(=O)C1(c2ccncc2)CCCN1C(=O)c1ccc(Nc2nc3c(N4CCC(O)(c5ccc(Cl)cc5)CC4)cccn3n2)cc1` (centres unmarked) [Example 1-74, 1-[4-[[8-[4-(4-chlorophenyl)-4-hydroxy-1-piperidyl]-[1,2,4]triazolo[1,5-a]-pyridin-2-yl]amino]benzoyl]-N,N-dimethyl-2-(4-pyridyl)pyrrolidine-2-carboxamide], for which the Ki is 1.34 nM.

As to `CN1CC[C@H]2CN(C(=O)c3ccc(Nc4nc5c(N6CCC(O)(c7ccc(Cl)cc7)CC6)cccn5n4)cc3)C[C@H]21` [Example 1-75, [(3aS,6aS)-1-methyl-2,3,3a,4,6,6a-hexahydropyrrolo[3,4-b]pyrrol-5-yl]-[4[[8-[4-(4-chlorophenyl)-4-hydroxy-1-piperidyl]-[1,2,4]triazolo[1,5-a]pyridin-2-yl]amino]phenyl] methanone], the Ki turned out to be 2.48 nM.

Take `CN1C[C@@H]2CCN(C(=O)c3ccc(Nc4nc5c(N6CCC(O)(c7ccc(Cl)cc7)CC6)cccn5n4)cc3)[C@@H]2C1` [Example 1-76, [(3aS,6aS)-5-methyl-2,3,3a,4,6,6a-hexahydropyrrolo[2,3-c]pyrrol-1-yl]-[4-[[8-[4-(4-chlorophenyl)-4-hydroxy-1-piperidyl]-[1,2,4]triazolo[1,5-a]pyridin-2-yl]amino]phenyl] methanone]: the Ki amounted to 1.51 nM.

With `CN(C)CC1(O)CCCN(C(=O)c2ccc(Nc3nc4c(N5CCC(O)(c6ccc(Cl)cc6)CC5)cccn4n3)cc2)CC1` (centres unmarked) [Example 1-77, [4-[[8-[4-(4-chlorophenyl)-4-hydroxy-1-piperidyl]-[1,2,4]triazolo[1,5-a]pyridin-2-yl]amino]phenyl]-[4-[(dimethylamino)methyl]-4-hydroxy-azepan-1-yl]methanone], the Ki was found to be 3.29 nM.
